Assay results as given in the supplement of paper PMC10126150.
Values marked as one replicate rest on one cluster of the flow cell; about a third of the high ones do not repeat.

Test system: ATP
Test: switch fluorescence ratio, 500 uM ATP over buffer (Cy3 cluster intensity, sum of 5 cycles each) (fold (ratio)); higher = stronger signal-on switching upon ATP binding; sequences stand for … in TCGTCGGCAGCGTCAGATGTGTATAAGAGACAGTTTTTTTTTTTTTTTTTTTTTTTTT…TC
Settings: aptamer strand: ATP DNA aptamer (quencher-CACCTGGGGGAGTATTGCGGAGGAAGG + anchor), 100 nM annealed; ATP concentration: 500 uM; one replicate
Outline: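 Between each of five buffer/ATP cycles, the flow-cell was stripped with NaOH and re-annealed. Each cycle imaged Cy3-labelled switching-strand clusters, annealed to 100 nM quencher-labelled ATP aptamer on a modified Illumina MiSeq flow-cell, first in selection buffer and then after 15 min with 500 uM ATP at 22 °C. The fluorescence ratio is summed target-cycle over summed buffer-cycle Cy3 intensity per cluster, averaged per switch-domain sequence, with clusters outside 100-1000 RFU excluded.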
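Note: ATP exposure 15 min at 22 °C before imaging.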

| Sequence | switch fluorescence ratio |
| --- | --- |
| GAAGTCTCCC | 1.06 |
| GAAGTGACGG | 0.946 |
| GAAGTGAGAT | 0.985 |
| GAAGTGTCAG | 0.994 |
| GAAGTTTAG | 1.05 |
| GAATAAGCGG | 0.996 |
| GAATAGCTAA | 1.06 |
| GAATAGCTGA | 1.02 |
| GAATCAGGCG | 1.04 |
| GAATCATAT | 1.02 |
| GAATCCCGGC | 0.99 |
| GAATCGATCT | 0.976 |
| GAATCGTGGA | 0.993 |
| GAATCTGGGT | 0.999 |
| GAATCTTTGA | 0.991 |
| GAATGACAAC | 1 |
| GAATGAGGGA | 1.01 |
| GAATGCATCG | 0.978 |
| GAATGCTACT | 1.03 |
| GAATGCTGCG | 0.935 |
| GAATGCTTGG | 1.02 |
| GAATGGCTC | 0.988 |
| GAATGGGCAG | 0.997 |
| GAATGGGT | 1.01 |
| GAATGGTGC | 0.903 |

| Sequence | switch fluorescence ratio |
| --- | --- |
| GAATGTAACA | 1.02 |
| GAATGTAGG | 1.02 |
| GAATGTATAG | 0.935 |
| GAATGTCCGC | 1.12 |
| GAATTACGAC | 1.26 |
| GAATTAGCTC | 0.961 |
| GAATTCACTA | 1.04 |
| GAATTCGGTG | 0.959 |
| GAATTCGTCA | 1.01 |
| GAATTTAGAG | 0.979 |
| GAATTTTACG | 0.994 |
| GACAAAGTAC | 4.08 |
| GACAACGGG | 1.02 |
| GACAAGCGTA | 1.01 |
| GACAAGCGTC | 1.02 |
| GACAATAAAA | 1.04 |
| GACAATGTAT | 1.02 |
| GACACAAAG | 1 |
| GACACACATG | 1.02 |
| GACACACGCT | 1.43 |
| GACACAGTCG | 1.03 |
| GACACATCA | 1.06 |
| GACACATTAA | 1.16 |
| GACACCTACG | 1.36 |
| GACACGTTTG | 0.95 |

| Sequence | switch fluorescence ratio |
| --- | --- |
| GACACTCTGA | 0.999 |
| GACACTGCTA | 1.26 |
| GACACTTAAG | 1.05 |
| GACACTTGGG | 1.01 |
| GACACTTTAA | 1.09 |
| GACAGAATGA | 1.01 |
| GACAGCAGCA | 1.17 |
| GACAGCTTGA | 1 |
| GACAGTGCA | 1.06 |
| GACATAGCAC | 3.19 |
| GACATATGG | 0.992 |
| GACATCGCAG | 1.11 |
| GACATGCACA | 1.06 |
| GACATTATG | 1.04 |
| GACATTCCAG | 1.02 |
| GACATTGTGC | 1.03 |
| GACCAAAGTT | 1.06 |
| GACCACGAGC | 1.01 |
| GACCATGCCG | 1.04 |
| GACCCATCTA | 0.977 |
| GACCCGCCTG | 1.01 |
| GACCCGTTGT | 0.953 |
| GACCCTAAAT | 1.02 |
| GACCGACCAT | 1.3 |
| GACCGCAACG | 1.43 |

| Sequence | switch fluorescence ratio |
| --- | --- |
| GACCGGATGA | 1.05 |
| GACCGGGGTT | 1.06 |
| GACCGTAAA | 1.16 |
| GACCTCTTTC | 1.2 |
| GACCTGAGGA | 1.06 |
| GACGAAACAG | 1.12 |
| GACGAAGCTC | 2.71 |
| GACGACTAAG | 1.09 |
| GACGAGTCGG | 1 |
| GACGATAGGT | 0.977 |
| GACGCAACTT | 3.11 |
| GACGCAGGAT | 1.83 |
| GACGCAGTCA | 1.01 |
| GACGCATCCA | 2.7 |
| GACGCCACGT | 1.53 |
| GACGCCATAT | 4 |
| GACGCGGACC | 2.74 |
| GACGCTATCA | 1.28 |
| GACGCTGACA | 1.27 |
| GACGCTTAGT | 1.11 |
| GACGGAAAGA | 1.03 |
| GACGGAACTC | 1.51 |
| GACGGAACTT | 1.22 |
| GACGGACTTA | 1.14 |
| GACGGCATGT | 0.978 |

| Sequence | switch fluorescence ratio |
| --- | --- |
| GACGGCCCTT | 1.03 |
| GACGGGATGA | 1.11 |
| GACGGGATTC | 1.2 |
| GACGGTAGCA | 1.19 |
| GACGTATTAC | 4.47 |
| GACGTCAGGC | 1.05 |
| GACGTGCTCG | 0.932 |
| GACGTGGGCT | 1.05 |
| GACGTGGTAT | 1.13 |
| GACGTGTCCA | 1.02 |
| GACGTGTGTG | 0.966 |
| GACGTGTTTA | 1 |
| GACGTTCCTC | 2.14 |
| GACGTTTATT | 1 |
| GACTACGACG | 1.05 |
| GACTACGTCT | 0.937 |
| GACTACTGTT | 0.967 |
| GACTAGGGGC | 0.99 |
| GACTAGGGTG | 1.02 |
| GACTAGTTTG | 0.989 |
| GACTCAAAGC | 1.26 |
| GACTCACTTT | 1.13 |
| GACTCATTTA | 1.03 |
| GACTCCAGGT | 2.22 |
| GACTCCATGG | 1.12 |

| Sequence | switch fluorescence ratio |
| --- | --- |
| GACTCGCCCC | 1.3 |
| GACTCGTAGG | 1.01 |
| GACTCGTGCT | 1.01 |
| GACTCTCCCA | 0.993 |
| GACTCTGCT | 1.08 |
| GACTCTGGAC | 1.23 |
| GACTGAAAAC | 1.19 |
| GACTGCACTT | 1.37 |
| GACTGCCCCG | 1.02 |
| GACTGCGGGT | 0.921 |
| GACTGTCGAA | 1.01 |
| GACTGTTCGA | 0.982 |
| GACTGTTGTG | 1 |
| GACTTACAAT | 1.17 |
| GACTTACCCG | 1.18 |
| GACTTACGTC | 1.12 |
| GACTTACTGA | 1.15 |
| GACTTCAGCA | 1.15 |
| GACTTCCTTT | 1.09 |
| GACTTCGGCC | 1.02 |
| GACTTCGGGG | 0.997 |
| GACTTCTTAT | 1.03 |
| GACTTGCTGT | 0.996 |
| GACTTTATGC | 1.01 |
| GACTTTGACA | 1.06 |

| Sequence | switch fluorescence ratio |
| --- | --- |
| GAGAAAGATT | 0.962 |
| GAGAAATGT | 1.02 |
| GAGAACATTT | 1.01 |
| GAGAAGAGGT | 0.979 |
| GAGAAGTGCC | 1.01 |
| GAGAATCTTT | 1.01 |
| GAGAATTGG | 1 |
| GAGACAATGA | 1.08 |
| GAGACAGCGG | 0.995 |
| GAGACATCTT | 0.984 |
| GAGACCCGGT | 1.02 |
| GAGACGGGGT | 1.03 |
| GAGACGGGTT | 1 |
| GAGAGAGAGA | 1.04 |
| GAGAGATTTC | 1.05 |
| GAGAGCACTA | 1.08 |
| GAGAGGACTA | 0.973 |
| GAGAGGCCTG | 0.98 |
| GAGAGTAAGT | 1.03 |
| GAGAGTCTTA | 0.938 |
| GAGAGTGGCG | 0.943 |
| GAGAGTGGGT | 0.988 |
| GAGAGTTACG | 0.974 |
| GAGAGTTAGG | 0.986 |
| GAGATAGGCA | 1 |

| Sequence | switch fluorescence ratio |
| --- | --- |
| GAGATCAAAA | 1.05 |
| GAGATCGCTC | 1.01 |
| GAGATCTAAG | 0.966 |
| GAGATGGCCT | 0.972 |
| GAGATGGGCT | 0.984 |
| GAGATGTTTG | 0.999 |
| GAGATTCTGC | 0.988 |
| GAGCAACTGT | 1.01 |
| GAGCAAGCT | 1.35 |
| GAGCAGGTAA | 1.12 |
| GAGCAGGTCC | 0.915 |
| GAGCATAAAG | 1 |
| GAGCCAAGTA | 1.01 |
| GAGCCACCCC | 1.03 |
| GAGCCACTTC | 1.05 |
| GAGCCCATCA | 1.03 |
| GAGCCCTCAA | 1.02 |
| GAGCCCTGCC | 1.05 |
| GAGCCTGAGC | 1.09 |
| GAGCGCACCT | 1.13 |
| GAGCGCCAGG | 0.988 |
| GAGCGCTGGA | 1.12 |
| GAGCGGAGAG | 1 |
| GAGCGGAGGA | 1.05 |
| GAGCGGCTGT | 1.04 |
